According to publication PMC4336329 (PLoS ONE, 2015):
Out of some 310,000 compounds screened, about 14,000 (4.5%) showed an effect of 50% or more. The effect is printed as a negative number. The list shows a part of the results.

Biological target: human ether-à-go-go-related gene (hERG) potassium channel (human, UniProt Q12809)
Experiment: primary screen, population patch clamp on CHO cells stably expressing hERG
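Further: peak tail current of the secondary pulse compared with the same well before compound.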

Sequence of human ether-à-go-go-related gene (hERG) potassium channel (Q12809 whole entry, looked up): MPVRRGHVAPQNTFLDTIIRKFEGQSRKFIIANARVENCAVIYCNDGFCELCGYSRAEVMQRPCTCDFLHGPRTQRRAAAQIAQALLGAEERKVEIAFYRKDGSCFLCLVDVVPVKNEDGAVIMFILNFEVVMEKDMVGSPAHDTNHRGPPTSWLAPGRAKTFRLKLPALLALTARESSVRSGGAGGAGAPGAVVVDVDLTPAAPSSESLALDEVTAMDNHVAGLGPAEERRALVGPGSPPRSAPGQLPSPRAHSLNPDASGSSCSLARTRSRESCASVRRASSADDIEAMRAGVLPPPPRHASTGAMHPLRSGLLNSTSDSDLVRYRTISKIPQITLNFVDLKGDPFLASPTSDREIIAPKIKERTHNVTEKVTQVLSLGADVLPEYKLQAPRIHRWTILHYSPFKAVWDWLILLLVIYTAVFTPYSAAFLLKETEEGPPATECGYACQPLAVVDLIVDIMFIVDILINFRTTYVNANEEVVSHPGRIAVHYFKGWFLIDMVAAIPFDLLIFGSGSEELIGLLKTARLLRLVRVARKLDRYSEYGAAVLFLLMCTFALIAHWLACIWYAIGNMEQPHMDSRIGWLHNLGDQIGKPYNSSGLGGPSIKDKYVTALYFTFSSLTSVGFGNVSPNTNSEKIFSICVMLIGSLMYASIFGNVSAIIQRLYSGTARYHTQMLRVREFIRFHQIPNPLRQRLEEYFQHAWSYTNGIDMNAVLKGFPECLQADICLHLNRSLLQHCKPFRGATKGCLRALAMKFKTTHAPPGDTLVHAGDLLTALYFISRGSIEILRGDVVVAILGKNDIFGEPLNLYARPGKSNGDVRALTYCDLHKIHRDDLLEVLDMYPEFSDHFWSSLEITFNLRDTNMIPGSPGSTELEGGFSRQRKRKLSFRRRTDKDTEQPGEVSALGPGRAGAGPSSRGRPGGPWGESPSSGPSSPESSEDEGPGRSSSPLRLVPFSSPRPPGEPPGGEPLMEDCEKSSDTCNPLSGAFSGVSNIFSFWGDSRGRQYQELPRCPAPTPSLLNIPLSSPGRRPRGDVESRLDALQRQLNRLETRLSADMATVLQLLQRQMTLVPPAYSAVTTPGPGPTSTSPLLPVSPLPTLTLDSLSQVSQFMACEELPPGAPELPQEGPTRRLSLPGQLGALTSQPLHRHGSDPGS

First: CC(C)(C)NS(=O)(=O)c1ccc(NC(=O)NC2CCCCC2)cc1
Second: COc1ccc(/C=N/NC(=O)CC(=O)NC2CCCCC2)cc1
The “hERG current change (%, negative = inhibition) at 10uM” value of the first is lower: -13.9% for the first, 5.89% for the second.

Compared with `Cc1ccc2ncnc(Oc3ncccc3[N+](=O)[O-])c2c1`, `Cc1cccc(NC(=S)N2CCCN(c3ncccc3[N+](=O)[O-])CC2)c1` is lower in “hERG current change (%, negative = inhibition) at 10uM” value: -7.8% for the first, -16.7% for the second.

First: COc1cc(NS(=O)(=O)c2ccc(NS(=O)(=O)c3ccccc3)cc2)nc(OC)n1
Second: COc1ccccc1N(C)S(=O)(=O)c1ccc(C(=O)OCC(=O)N(C)c2ccccc2)cc1
The “hERG current change (%, negative = inhibition) at 10uM” value of the first is higher: 17.7% for the first, 12.6% for the second.

First: CCOC(=O)N1CCc2c(sc3ncn(Cc4ccc(F)cc4)c(=O)c23)C1
Second: O=C(Cn1cnc2cc([N+](=O)[O-])ccc2c1=O)NCCc1ccc(F)cc1
The “hERG current change (%, negative = inhibition) at 10uM” value of the first is lower: -45% for the first, -39.8% for the second.

First: CC(=O)Oc1ccc(C(=O)Nc2ccccc2NC(=O)c2ccc(OC(C)=O)cc2)cc1
Second: COc1ccc(C(=O)NNC(=O)c2ccc(S(=O)(=O)N3CCOCC3)cc2)cc1
The “hERG current change (%, negative = inhibition) at 10uM” value of the first is lower: -9.19% for the first, 20% for the second.

Going from `O=C(COC(=O)COc1ccc(Br)cc1)NCc1ccccc1` to `COc1ccc(CC(=O)NCCCCc2ccccc2)cc1OC`, the “hERG current change (%, negative = inhibition) at 10uM” value falls from 6.35% to 4.21%.

Compared with `COc1cc(OC)c(NS(=O)(=O)c2c(C(=O)N3CCCCC3)c(C)n(C)c2C)cc1Cl`, `COc1ccc(CCN2C(=O)C(C)=C(C)C2=O)cc1OC` is higher in “hERG current change (%, negative = inhibition) at 10uM” value: 5.91% for the first, 11.7% for the second.

Going from `Cc1cc(NN)nc(NS(=O)(=O)c2ccccc2Cl)n1` to `CCOC(=O)C(=O)Nc1cc(C)nn1-c1nc2ccccc2[nH]1`, the “hERG current change (%, negative = inhibition) at 10uM” value falls from 12.7% to 8.82%.

Compared with `Cc1cc2ccccc2n2c(SCC(=O)NCc3cccs3)nnc12`, `COc1ccc(CCCc2nnc(SCC(=O)Nc3nc(C)cs3)n2C)cc1C` is higher in “hERG current change (%, negative = inhibition) at 10uM” value: -11.5% for the first, -10.7% for the second.

First: CCOC(=O)N1CCN(C(=O)c2ccc(Oc3ccc([N+](=O)[O-])cc3)cc2)CC1
Second: O=C(CN1CCC(C(=O)c2ccc(F)cc2)CC1)Nc1ccc(F)cc1
The “hERG current change (%, negative = inhibition) at 10uM” value of the first is lower: -68.3% for the first, -64.7% for the second.

First: CCc1cc(=O)oc2cc(OCC(=O)O)c(Cl)cc12
Second: COc1cccc2cc(-c3cc(=O)oc4ccc(OC(=O)N(C)C)cc34)oc12
The “hERG current change (%, negative = inhibition) at 10uM” value of the first is lower: 3.19% for the first, 14.3% for the second.

Going from `CN(C)c1ccc(CNS(=O)(=O)c2ccc3c(c2)C(C)(C)C(=O)N3C)cc1` to `Cc1ccc(NC(=O)c2cc(S(=O)(=O)N3CCc4ccccc43)cn2C)cc1`, the “hERG current change (%, negative = inhibition) at 10uM” value rises from 5.98% to 13.2%.

First: Cc1ccccc1C(=O)c1cccn1CC(=O)NCCN1CCN(c2cccc(C)c2C)CC1
Second: Cn1c(=O)[nH]c(=O)c2c1nc(N1CCN(C(c3ccccc3)c3ccccc3)CC1)n2CCO
The “hERG current change (%, negative = inhibition) at 10uM” value of the first is lower: -69.5% for the first, 8.58% for the second.

Going from `O=C(NC12CC3CC(CC(C3)C1)C2)c1ccc(-c2ccc(Cl)cc2)o1` to `Cc1ccc(Cl)cc1C1=CC(=O)C[C@H](c2ccc(F)cc2)C1`, the “hERG current change (%, negative = inhibition) at 10uM” value rises from -11.8% to 3.6%.

Compared with `C/C(=N\NC(=O)c1cccc(S(=O)(=O)N2CCOCC2)c1)c1ccc(OC(F)F)cc1`, `O=C(c1ccc2nc(N3CCOCC3)sc2c1)N1CCC(Cc2ccccc2)CC1` is lower in “hERG current change (%, negative = inhibition) at 10uM” value: -18.8% for the first, -63.2% for the second.

First: CC1=C(C(=O)NCCN2CCN(C)CC2)C2(CCC(C)CC2)OC1=O (stereo not shown)
Second: COCCNC(=O)Cn1cc2c(n1)CCC(C)C2 (stereo not shown)
The “hERG current change (%, negative = inhibition) at 10uM” value of the first is lower: 6.17% for the first, 21.2% for the second.

First: Cc1cc(Cl)ccc1NC(=O)CN(C)C1=NS(=O)(=O)c2ccccc21
Second: Cc1cnc(C(=O)OCC(=O)Nc2ccccc2-c2ccccc2)cn1
The “hERG current change (%, negative = inhibition) at 10uM” value of the first is lower: 4.17% for the first, 8.66% for the second.

Compared with `O=C(NCCNc1ccc([N+](=O)[O-])cc1)c1cccc2c(Br)cccc12`, `C/C(=N/Nc1ccc([N+](=O)[O-])cc1)c1c[nH]c2ccccc12` is higher in “hERG current change (%, negative = inhibition) at 10uM” value: -23% for the first, 27.2% for the second.

Compared with `NC(=O)c1sc2nc(-c3cccs3)ccc2c1N`, `Nc1ccccc1C(=O)Nc1nccs1` is lower in “hERG current change (%, negative = inhibition) at 10uM” value: 8.15% for the first, 7.16% for the second.

Going from `CC1(C)CC(=O)C=C(NNC(=O)c2ccc(N)cc2)C1` to `CC(=O)Nc1ccc(NC(=O)c2cc[n+]([O-])cc2)cc1`, the “hERG current change (%, negative = inhibition) at 10uM” value rises from -5.53% to 25.2%.

First: Cc1nc(S(=O)(=O)N2CCN(C3c4ccccc4-c4ccccc43)CC2)cn1C
Second: O=C1C(=C(O)c2ccccc2)C(=O)c2ccccc21
The “hERG current change (%, negative = inhibition) at 10uM” value of the first is higher: 13.9% for the first, -12.7% for the second.

Going from `Cc1cccc(CCN(CC(=O)NCc2ccc(F)cc2)C(=O)c2csnn2)c1` to `Cc1nc(C(=O)NCc2ccccc2)sc1C1(C)CC(c2ccccc2)=NO1` (stereo not shown), the “hERG current change (%, negative = inhibition) at 10uM” value rises from -29% to -15.6%.

First: CCCCCCCCn1c(=O)c(C(=O)OC)c(N)c2ccccc21
Second: Cc1c(C)n(CC(O)CNCCO)c2ccccc12.O=C(O)C(=O)O (stereo not shown)
The “hERG current change (%, negative = inhibition) at 10uM” value of the first is lower: 3.02% for the first, 5.33% for the second.

Going from `CCCOc1ccc(N2C(=O)CC(N(CCc3ccc(OC)c(OC)c3)C(=S)Nc3ccccc3)C2=O)cc1` (stereo not shown) to `COc1ccc(CN2C(=O)c3ccccc3C(/C=N\OCc3ccc(F)cc3)C2=O)cc1` (stereo not shown), the “hERG current change (%, negative = inhibition) at 10uM” value falls from 14.5% to -2.55%.

Compared with `COC(=O)c1ccc(C(=O)OC)c(NC(=O)COc2ccccc2OC)c1`, `COc1ccccc1OCCCC(=O)Nc1ccc2c(c1)OCCO2` is lower in “hERG current change (%, negative = inhibition) at 10uM” value: 7.26% for the first, 5.75% for the second.

Compared with `Cc1sc2nc(CSCC(=O)N(C)c3ccccc3)[nH]c(=O)c2c1C`, `O=c1cc(O)c2c(=O)[nH]c(=O)n(-c3ccccc3)c2[nH]1` is higher in “hERG current change (%, negative = inhibition) at 10uM” value: -3.48% for the first, 6.7% for the second.

First: CN(C(=O)c1ccc(OC2CCN(Cc3ccccn3)CC2)cc1)C1CCCCC1
Second: CCCc1ccc(OCC(O)CN2CCN(c3ccccc3)CC2)cc1.Cl (stereo not shown)
The “hERG current change (%, negative = inhibition) at 10uM” value of the first is higher: -9.82% for the first, -46.5% for the second.

First: COc1ccc(Cl)cc1NC(=O)CCCN1C(=O)CCC1=O
Second: COc1ccc(CN2CCN(C(=O)CCC(=O)Nc3nnc(CC(C)C)s3)CC2)cc1F
The “hERG current change (%, negative = inhibition) at 10uM” value of the first is higher: 14.4% for the first, -17.9% for the second.

Compared with `CCOc1ccc(NC(=O)C(CC)n2nc(C)c3c(C)n(-c4ccccc4)nc3c2=O)cc1` (stereo not shown), `CCCn1c(SCC(=O)N(C)CC(=O)Nc2ccc(C)cc2)n[nH]c1=O` is higher in “hERG current change (%, negative = inhibition) at 10uM” value: -30.1% for the first, -3.2% for the second.

Going from `Cl.Fc1ccc(OCCCCN2CCOCC2)cc1` to `Cn1c(=O)[nH]c(=O)c2c1ncn2CCN1CCOCC1`, the “hERG current change (%, negative = inhibition) at 10uM” value rises from -4.81% to 17.8%.

Going from `COc1cccc(/C=N/n2c(C3CCCCC3)n[nH]c2=S)c1O` to `Cn1c(SCC(=O)NC2CCCCC2)nnc1-c1cccc(N)c1`, the “hERG current change (%, negative = inhibition) at 10uM” value rises from 1.87% to 7.53%.

Going from `O=C(N/N=C/c1ccccn1)c1cc(-c2ccc(Br)cc2)nc2ccccc12` to `CC(=O)Nc1nc2nc(-c3ccccc3)cc(-c3ccccc3)n2n1`, the “hERG current change (%, negative = inhibition) at 10uM” value falls from 16.9% to -18.5%.

First: CN1C(=S)SC(C)(C)C1/[N+]([O-])=C/c1cccnc1 (stereo not shown)
Second: Oc1ccc(/C=N/NC(=S)Nc2cccnc2)cc1O
The “hERG current change (%, negative = inhibition) at 10uM” value of the first is lower: 11.9% for the first, 18.1% for the second.

Going from `CCO[C@@H]1OC(C(=O)N2CCN(Cc3ccc4c(c3)OCO4)CC2)=C[C@H](C2CCCCC2)[C@H]1CCCO` to `Cc1cccc(-c2nnc(SCC(=O)N3CCOCC3)o2)c1`, the “hERG current change (%, negative = inhibition) at 10uM” value rises from -17.8% to 18.9%.

Compared with `CC1CCCC(NC(=O)COC(=O)c2c[nH]c(=O)[nH]c2=O)C1C` (stereo not shown), `Cc1cc(C)c(NC(=O)COC(=O)/C=C/c2cccc(C(F)(F)F)c2)c(C)c1` is higher in “hERG current change (%, negative = inhibition) at 10uM” value: 5.59% for the first, 5.67% for the second.

Compared with `Clc1ccc(Nc2ncn[nH]2)c(Cl)c1`, `S=C(NCc1ccco1)Nc1ccc(Cl)c(Cl)c1` is lower in “hERG current change (%, negative = inhibition) at 10uM” value: 9.46% for the first, -2.14% for the second.

Compared with `CC1=[N+](C)N(c2ccccc2)C(=O)C1N=Cc1ccccc1Cl` (stereo not shown), `O=C(CSCc1ccccc1Cl)NNC(=S)Nc1ccccc1` is higher in “hERG current change (%, negative = inhibition) at 10uM” value: -2.36% for the first, 30.9% for the second.

Going from `O=C(O)CCCCCNC(=O)c1ccccc1Br` to `O=C(O)c1ccccc1C(=O)Nc1cccc([N+](=O)[O-])c1`, the “hERG current change (%, negative = inhibition) at 10uM” value falls from 16.4% to 12.3%.

Going from `Cc1ccccc1Nc1nc(N)nc(CSc2nc3ccccc3c(=O)n2CCCO)n1` to `CCC(C)NC(=O)c1c(N)n(CC2CCCO2)c2nc3ccccc3nc12` (stereo not shown), the “hERG current change (%, negative = inhibition) at 10uM” value rises from -18.8% to 3.05%.

Going from `COc1ccc(-c2cc(-c3n[nH]c(=S)n3-c3cc(OC)ccc3OC)[nH]n2)cc1` to `Cc1ccc(-c2csc3nc[nH]c(=S)c23)cc1`, the “hERG current change (%, negative = inhibition) at 10uM” value falls from 13.9% to 11.7%.

First: O=C(COc1ccccc1)N=C1SC2CS(=O)(=O)CC2N1c1ccccc1 (stereo not shown)
Second: O=C1c2ccccc2S(=O)(=O)c2cc(N3CCN(C(=O)c4ccccc4)CC3)ccc21
The “hERG current change (%, negative = inhibition) at 10uM” value of the first is higher: 9.3% for the first, -26.1% for the second.

Going from `N#CCc1c(C#N)c(N)nc(Nc2ccccc2)c1C#N` to `CCCCCCSc1cccc(-c2nc3ccc(C)cn3c2NCc2ccccc2)c1.O=C(O)C(F)(F)F`, the “hERG current change (%, negative = inhibition) at 10uM” value falls from 23.9% to -6.77%.

Compared with `CCCCOC(=O)/C(=C/C=C/c1ccccc1)NC(=O)c1ccccc1`, `COC(=O)c1ccc(NC(=S)NCc2ccco2)cc1` is higher in “hERG current change (%, negative = inhibition) at 10uM” value: -34.2% for the first, -4.7% for the second.

Compared with `COc1ccc(NC(=S)NN2CCN(C)CC2)cc1OC`, `COc1ccccc1NC(=S)NNC(=O)c1cc(C)nn1C` is higher in “hERG current change (%, negative = inhibition) at 10uM” value: 4.78% for the first, 10.4% for the second.
